The structures appear in SMILES notation. Values joined by “and” are separate entries in the source; they are usually repeats but may differ in a detail not shown here. Equal entries are not always repeated. Out of some 110,000 compounds screened, about 230 (0.21%) showed an effect of 50% or more. The list shows a part of the results.

The values below come from article PMC6919601, “Identification of Plasmodium dipeptidyl aminopeptidase allosteric inhibitors by high throughput screening” (PLoS ONE, 2019).
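Also: 30 min substrate incubation versus DMSO and 10 µM JCP410 controls.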

Sequence of DPAP1 (Q8IIJ9 whole entry, looked up): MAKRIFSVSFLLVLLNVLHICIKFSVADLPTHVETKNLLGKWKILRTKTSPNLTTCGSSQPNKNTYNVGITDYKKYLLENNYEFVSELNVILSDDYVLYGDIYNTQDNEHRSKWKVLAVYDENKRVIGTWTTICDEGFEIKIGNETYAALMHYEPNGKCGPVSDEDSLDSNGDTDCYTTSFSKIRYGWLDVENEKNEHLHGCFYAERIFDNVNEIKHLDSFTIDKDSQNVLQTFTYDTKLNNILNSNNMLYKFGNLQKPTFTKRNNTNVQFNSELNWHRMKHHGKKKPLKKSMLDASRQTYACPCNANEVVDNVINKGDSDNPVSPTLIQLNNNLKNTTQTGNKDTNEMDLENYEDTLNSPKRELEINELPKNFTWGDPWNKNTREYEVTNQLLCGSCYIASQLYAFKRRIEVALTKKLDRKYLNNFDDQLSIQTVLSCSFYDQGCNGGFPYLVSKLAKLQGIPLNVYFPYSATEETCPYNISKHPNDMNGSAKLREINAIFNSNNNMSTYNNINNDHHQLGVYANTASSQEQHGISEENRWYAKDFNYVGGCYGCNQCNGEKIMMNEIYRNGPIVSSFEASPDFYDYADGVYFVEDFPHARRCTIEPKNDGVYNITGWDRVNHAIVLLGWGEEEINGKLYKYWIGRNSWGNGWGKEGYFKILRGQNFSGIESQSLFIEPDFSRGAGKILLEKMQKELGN

The target in the experiment is DPAP1 (Plasmodium falciparum, UniProt Q8IIJ9). Briefly: primary screen, percent inhibition; read by cleavage of a fluorogenic dipeptide substrate; higher = more effect of the substance. Also on record: species or system P. falciparum D10 trophozoite lysates; single well. The method, then:
HTS was performed in black 384-well plates. The first and last two columns of each plate contained our negative (DMSO) and positive (10 μM JCP410) controls, and the 20 central columns the test compounds at 10 μM. Compounds were first diluted 50-fold into assay buffer (50 mM sodium acetate, 5 mM MgCl2, 10 mM β-mercaptoethanol, and 0.1% CHAPS, pH 5.5) from a 10 mM DMSO stock plates. One microliter of this 200 μM intermediate stock plate was dispensed into the assay plate. […] After 30 min, the reaction was quenched with 20 μL of 0.5 M acetic acid, and the fluorescent intensity measured at 523 nm (λex = 492 nm) using an Analyst HT multimode plate reader (Molecular Devices).
With `Nc1ccc(Cc2ccc(NC(=O)c3cccnc3)cc2)cc1`, the “% Inhibition @ 10 uM” value is reported as -1.17%. Consider `CC(C)CN1C(=O)NC(NC(=O)c2ccccc2F)(C(F)(F)F)C1=O` (stereo not shown), for which the “% Inhibition @ 10 uM” value is listed as 5.12%. The same measure for `COc1cc(C2C(C#N)=C(N)OC3=C2C(=O)CC(C)(C)C3)cc2c1OCO2` (stereo not shown): 2.38%; for `CCOc1ccc(C(=O)Nc2ccc(C)cc2Br)cc1`: 14.3%; for `COc1ccccc1NC(=O)C1=C(C)N=C2CC(C)(C)CC(O)=C2C1c1cccc(Br)c1` (stereo not shown): -0.941%. The result for `O=S(=O)(Nc1nc2ccccc2nc1NCc1ccccc1)c1ccc(Cl)cc1` reads 0.275%. In the case of `COc1ccc(C(=O)Nc2nc3nccc(-c4ccccc4)n3n2)cc1`, the “% Inhibition @ 10 uM” value is -1.28%.

As for `Cn1c(=O)c2c(nc(Oc3ccc(C(C)(C)C)cc3)n2C)n(C)c1=O`, the “% Inhibition @ 10 uM” value is recorded as 4.74%. The result for `CC(=O)N1CCN(c2ccc(NCc3cccc4ccccc34)cc2)CC1` reads -4.21%.

Turning to `N#Cc1cc2c(nc1SCC(=O)N1CCOCC1)CCCCC2`, the “% Inhibition @ 10 uM” value turned out to be 2.7%. The result for `CCCNC(=O)c1ccc(-c2nn(C)c(=O)c3ccccc23)cc1` reads 0.315%; that for `C=CCOc1ccc(/C=c2\sc3nc(-c4ccccc4)nn3c2=O)cc1OC`, 1.91%; that for `O=S1(=O)N=C(Nc2nc(-c3ccc(Cl)cc3)cs2)c2ccccc21`, 5.12%. As for `CCN1C(=O)CC(c2ccco2)=Nc2ccccc21`, the “% Inhibition @ 10 uM” value is -2.64% and -0.519%. The result for `O=C(Cn1ncc2c1-c1ccccc1OC2)NC1CCCc2ccccc21` (stereo not shown) reads 2.6%; that for `CCCN1CCC(Nc2ccc3c[nH]nc3c2)CC1`, -3.6%; that for `Cc1nn(-c2ccccc2)c(C)c1CC(=O)NCCc1ccccc1`, 2.38%. For the compound `CCCC1=NC(c2ccccc2)(c2ccccc2)c2ccccc2O1`, the “% Inhibition @ 10 uM” value is given as -0.712%. Take `COc1ccc(C(=O)Nc2nncs2)c(OC)c1`: the “% Inhibition @ 10 uM” value is reported as -7.23%. For `Cc1nc2c(c(C)nn2C)c(C)c1CCC(=O)NCc1ccco1`, the “% Inhibition @ 10 uM” value is recorded as -4.24%. Take `CSc1ccc(CN2CCN(c3ccccc3F)CC2)cc1`: the “% Inhibition @ 10 uM” value is 0.708%. For `NC(=O)CN1CCn2c3c(c4cc(C5CCCCC5)ccc42)CCCC31` (stereo not shown), the “% Inhibition @ 10 uM” value came out at 0.486%. As for `O=[N+]([O-])c1ccc(CN2CCOCC2)cc1`, the “% Inhibition @ 10 uM” value is reported as 2.7%. The same measure for `CCOC(=O)C1=C(C)N=c2s/c(=C\c3ccc(N(CC)CC)cc3)c(=O)n2C1c1ccc(Cl)cc1` (stereo not shown): -3.44%; for `O=C(Cn1ncc2c(Cl)cccc21)NCCc1ccccc1`: -1.11%.

`Cc1cccc2c1Oc1nc(-c3ccccc3)nc(O)c1C2`: the “% Inhibition @ 10 uM” value is 5.48%. The result for `COC(=O)c1c(C)nn(-c2ccccc2)c1NC(=O)c1ccc(F)cc1` reads -7.23%.

On to `CC(C)(C)c1ccc(OCCOCCN2CCNCC2)cc1`, for which the “% Inhibition @ 10 uM” value is recorded as -6.75%.
